The other results are listed elsewhere or left out.
B1: PhoQ; a variant is named by its letters at X, in order, P23837 (parent)
chain: MKKLLRLFFPLSLRVRFLLATAAVVLVLSLAYGMVALIGYSVSFDKTTFRLLRGESNLFYTLAKWENNKLHVELPENIDKQSPTMTLIYDENGQLLWAQRDVPWLMKMIQPDWLKSNGFHEIEADVNDTSLLLSGDHSIQQQLQEVREDDDDAEMTHSVAVNVYPATSRMPKLTIVVVDTIPVELKSSYMVWSWFIYVLSANLLLVIPLLWVAAWWSLRPIEALAKEVRELEEHNRELLNPATTRELTSLVRNLNRLLKSERERYDKYRTTLTDLTHSLKTPLXXLQXXLRSLRSEKMSVSDAEPVMLEQISRISQQIGYYLHRASMRGGTLLSRELHPVAPLLDNLTSALNKVYQRKGVNISLDISPEISFVGEQNDFVEVMGNVLDNACKYCLEFVEISARQTDEHLYIVVEDDGPGIPLSKREVIFDRGQRVDTLRPGQGVGLAVAREITEQYEGKIVAGESMLGGARMEVIFGRQHSAPKDE

Variants of: B1
Test: enrichment ratio after two sorts for PhoP signalling (ratio (wild type AVST 3.29)); higher = more functional
Details: with PhoP (E. coli)

Variant | enrichment ratio
MKGA | ≤ 0.25
LAHD | ≤ 0.25
AGRY | ≤ 0.25
HDMN | ≤ 0.25
WFTI | ≤ 0.25
SNSA | 13.1
LGVH | ≤ 0.25
NPSW | ≤ 0.25
HKHM | ≤ 0.25
HPTG | ≤ 0.25
DATA | ≤ 0.25
QKIN | ≤ 0.25
ASKP | ≤ 0.25
AFCM | ≤ 0.25
SYPM | ≤ 0.25
NPVF | ≤ 0.25
ETHQ | ≤ 0.25
HCFC | ≤ 0.25
GDPI | ≤ 0.25
LQQF | ≤ 0.25
HARL | ≤ 0.25
PAIW | ≤ 0.25
WEMD | ≤ 0.25
IERF | ≤ 0.25

Variant | enrichment ratio
TSFA | 1.87
YNPA | ≤ 0.25
QEMV | 8.71
RQAI | ≤ 0.25
YKKL | ≤ 0.25
NDVL | ≤ 0.25
MYMR | ≤ 0.25
KDSS | ≤ 0.25
FGVK | ≤ 0.25
GRIM | ≤ 0.25
GCGG | ≤ 0.25
SEEY | ≤ 0.25
HALY | ≤ 0.25
THYR | ≤ 0.25
HAAQ | ≤ 0.25
GNSM | 10.6
PSCI | ≤ 0.25
IGCG | ≤ 0.25
LHAK | ≤ 0.25
LNPT | ≤ 0.25
HDND | ≤ 0.25
NRRH | ≤ 0.25
EMYG | ≤ 0.25
TRFK | ≤ 0.25

Variant | enrichment ratio
FMMF | ≤ 0.25
PKME | ≤ 0.25
QTRN | ≤ 0.25
TLDI | ≤ 0.25
HHKL | ≤ 0.25
HWGF | ≤ 0.25
VYDE | ≤ 0.25
FWHE | ≤ 0.25
TAHA | 0.718
WRIL | ≤ 0.25
LAWL | 0.669
QVKK | ≤ 0.25
AVTS | 4.52
RRIT | ≤ 0.25
GALD | ≤ 0.25
RCVW | ≤ 0.25
RELW | ≤ 0.25
LWWA | ≤ 0.25
MTLI | 10.4
DFEH | ≤ 0.25
ISKL | ≤ 0.25
LSVQ | ≤ 0.25
LMQF | ≤ 0.25
WVRN | ≤ 0.25

Variant | enrichment ratio
KPIK | ≤ 0.25
ANIK | ≤ 0.25
RLEM | ≤ 0.25
NHMC | ≤ 0.25
DMAM | ≤ 0.25
IEMI | ≤ 0.25
RSSV | ≤ 0.25
KRNY | ≤ 0.25
FNKC | ≤ 0.25
GTNS | ≤ 0.25
DPAI | ≤ 0.25
EGHF | ≤ 0.25
GHMD | ≤ 0.25
PILM | ≤ 0.25
QCQM | ≤ 0.25
TDVT | ≤ 0.25
HHLL | ≤ 0.25
IRIT | ≤ 0.25
MSVL | 8.77
DTLW | ≤ 0.25
VFKV | ≤ 0.25
YSDY | ≤ 0.25
RLEY | ≤ 0.25
IPME | ≤ 0.25

Variant | enrichment ratio
YDTT | ≤ 0.25
PSQF | ≤ 0.25
IQYG | ≤ 0.25
LCPG | ≤ 0.25
LLTK | ≤ 0.25
LIQM | ≤ 0.25
PWHG | ≤ 0.25
VWGI | ≤ 0.25
NPMK | ≤ 0.25
EKHR | ≤ 0.25
VHMC | ≤ 0.25
YQRE | ≤ 0.25
KSPV | ≤ 0.25
TWSA | ≤ 0.25
IMVR | ≤ 0.25
AKDT | ≤ 0.25
GHEG | ≤ 0.25
SPIF | ≤ 0.25
MYKP | ≤ 0.25
ASMK | 17
LLVS | ≤ 0.25
IWRI | ≤ 0.25
HECQ | ≤ 0.25
MVWP | ≤ 0.25

Variant | enrichment ratio
LEWS | ≤ 0.25
FAIL | 0.486
HCHF | ≤ 0.25
QRKP | ≤ 0.25
DLNT | ≤ 0.25
WVFR | ≤ 0.25
GDNC | ≤ 0.25
HYMM | ≤ 0.25
GHYG | ≤ 0.25
KAFI | ≤ 0.25
WRQF | ≤ 0.25
EQTS | ≤ 0.25
WRDN | ≤ 0.25
PRNI | ≤ 0.25
RWSD | ≤ 0.25
TVKI | ≤ 0.25
GGQP | ≤ 0.25
WGEI | ≤ 0.25
PHFS | ≤ 0.25
LLAQ | ≤ 0.25
LMYR | ≤ 0.25
TKTT | 11.6
MVFM | ≤ 0.25
YTIT | ≤ 0.25

Variant | enrichment ratio
FEYL | ≤ 0.25
WAWV | ≤ 0.25
HDGM | ≤ 0.25
EKTI | ≤ 0.25
HPYM | ≤ 0.25
KNVF | ≤ 0.25
NGKT | ≤ 0.25
YIFF | ≤ 0.25
SKPK | ≤ 0.25
WKNA | ≤ 0.25
IYDH | ≤ 0.25
RSEG | ≤ 0.25
RPEI | ≤ 0.25
YESS | ≤ 0.25
YEGQ | ≤ 0.25
QDTR | ≤ 0.25
RYID | ≤ 0.25
KVDK | ≤ 0.25
FFEN | ≤ 0.25
FPCR | ≤ 0.25
IEIQ | ≤ 0.25
ESIK | ≤ 0.25
HCAY | ≤ 0.25
YDIA | ≤ 0.25

Variant | enrichment ratio
YDSP | ≤ 0.25
NMWV | ≤ 0.25
PWYI | ≤ 0.25
YLYG | ≤ 0.25
RKRW | ≤ 0.25
VHCN | ≤ 0.25
PWMR | ≤ 0.25
FMWC | ≤ 0.25
TRPP | ≤ 0.25
IFPL | ≤ 0.25
YPEY | ≤ 0.25
GVRR | ≤ 0.25
PTWK | ≤ 0.25
KVTG | ≤ 0.25
TLPC | ≤ 0.25
RVYP | ≤ 0.25
MVKP | ≤ 0.25
HDFP | ≤ 0.25
RNPM | ≤ 0.25
IKRY | ≤ 0.25
TTDR | ≤ 0.25
STPV | 9.19
EAGW | ≤ 0.25
PYNW | ≤ 0.25

Variant | enrichment ratio
EFID | ≤ 0.25
GPNR | ≤ 0.25
PLVV | ≤ 0.25
LPVH | ≤ 0.25
KKTH | ≤ 0.25
PQRW | ≤ 0.25
FCDC | ≤ 0.25
PTTT | ≤ 0.25
LQLQ | ≤ 0.25
EIDL | ≤ 0.25
KAVW | ≤ 0.25
INWE | ≤ 0.25
YHDY | ≤ 0.25
MNRT | ≤ 0.25
WFPH | ≤ 0.25
GSQE | ≤ 0.25
HINH | ≤ 0.25
MVHG | ≤ 0.25
QHHD | ≤ 0.25
FHHE | ≤ 0.25
LNFK | ≤ 0.25
ARLC | ≤ 0.25
CSLG | ≤ 0.25
QSFS | 2.3

Variant | enrichment ratio
STGT | 1.71
AGRW | ≤ 0.25
FNQK | ≤ 0.25
GTFP | ≤ 0.25
MGVF | ≤ 0.25
NITP | ≤ 0.25
MQMV | ≤ 0.25
TSII | 0.614
LKIY | ≤ 0.25
ALHR | ≤ 0.25
NSMA | ≤ 0.25
HKAW | ≤ 0.25
GTTC | ≤ 0.25
NTLR | ≤ 0.25
FLLM | 4.04
NPGL | ≤ 0.25
SDPS | ≤ 0.25
LCKF | ≤ 0.25
QTSW | ≤ 0.25
ALWM | ≤ 0.25
ATLW | 7.72
FTTP | ≤ 0.25
TKHM | ≤ 0.25
RCCT | ≤ 0.25

Variant | enrichment ratio
MTSK | ≤ 0.25
QMIG | ≤ 0.25
TFRK | ≤ 0.25
QHLL | ≤ 0.25
VQSW | ≤ 0.25
HSNP | ≤ 0.25
NFEQ | ≤ 0.25
ETSY | ≤ 0.25
MHAW | ≤ 0.25
LKFS | ≤ 0.25
LYFK | ≤ 0.25
RIMC | ≤ 0.25
NWMY | 3.07
HCLH | ≤ 0.25
EFQM | ≤ 0.25
PEWG | ≤ 0.25
NWTN | ≤ 0.25
SRNQ | ≤ 0.25
VLPS | ≤ 0.25
IDWY | ≤ 0.25
PKMQ | ≤ 0.25
PDRS | ≤ 0.25
PQAM | ≤ 0.25
SVYP | ≤ 0.25

Variant | enrichment ratio
KCMR | ≤ 0.25
PDGD | ≤ 0.25
RCRH | 0.996
DMRP | ≤ 0.25
KYAI | ≤ 0.25
IFHV | ≤ 0.25
EQSD | ≤ 0.25
YVAD | ≤ 0.25
IAVM | ≤ 0.25
AMDK | ≤ 0.25
PYGC | ≤ 0.25
YQMC | ≤ 0.25
FFKR | ≤ 0.25
TARL | ≤ 0.25
VLAW | ≤ 0.25
WKRL | ≤ 0.25
RCVL | ≤ 0.25
APYM | ≤ 0.25
LMAL | ≤ 0.25
YMYI | ≤ 0.25
PAPQ | ≤ 0.25
KKHE | ≤ 0.25
GTHL | ≤ 0.25
TTQN | ≤ 0.25

Variant | enrichment ratio
YQAE | 0.299
VRNQ | ≤ 0.25
MKYA | ≤ 0.25
QMEI | ≤ 0.25
DDWA | ≤ 0.25
IYVV | ≤ 0.25
YYEG | ≤ 0.25
NKGI | ≤ 0.25
MYHR | ≤ 0.25
PVMD | ≤ 0.25
QCWM | 7.93
YDNN | ≤ 0.25
FMYC | ≤ 0.25
SHMN | ≤ 0.25
QENR | ≤ 0.25
LILP | ≤ 0.25
HPLG | ≤ 0.25
KCCY | ≤ 0.25

Reference: a collection of fitness landscapes (doi:10.1126/science.1257360)
